{
  "source": "the supplement of paper PMC11417369",
  "note": "The other results are listed elsewhere or left out.",
  "data": [
    {"tested_on": "PF3D7_0420300 AP2 domain 1 (GST-tagged)", "assay": "gcPBM binding intensity (ln(normalized median fluorescence intensity)); higher = stronger DNA binding", "method_in_brief": "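Each value is the highest Masliner-normalised natural-log median intensity across replicate spots of either orientation of a probe. The probes were primer-extended double-stranded 36-bp intergenic genomic sequences on an Agilent 4 × 180k array, alongside negative controls, exposed for 1 h to GST-tagged P. falciparum DNA-binding domains expressed in E. coli. Bound protein was picked up with Alexa488 anti-GST antibody and scanned at 488 nm.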", "values": [
      {"sequence": "TAATGTTGAGAATTTTGTACATATAGATCAATTTAT [XGTACX_site5426]", "gcPBM binding intensity (ln)": 8.97},
      {"sequence": "ATTTATTATGAACATACACACAAAAAAAAAAAGTAT [CACACA_site2054]", "gcPBM binding intensity (ln)": 9.96},
      {"sequence": "TAACTTTGAAAAGATGGTACACAATAATATATATAT [XGTACX_site8667]", "gcPBM binding intensity (ln)": 9.38},
      {"sequence": "TACCCATGCATTTTTGCACACACATATATATATAAA [CACACA_site1429]", "gcPBM binding intensity (ln)": 9.71},
      {"sequence": "AGACAGCGCACAAACACACAAACACCCACCCACATA [CACACA_site451]", "gcPBM binding intensity (ln)": 10.2},
      {"sequence": "ATTTTTGTACACTTCTTTTTTTTTTTTCTTTTATGT [CACACA_negctrl_site1323]", "gcPBM binding intensity (ln)": 9.88},
      {"sequence": "TACTTACATATAATAACACACAAGAAAAAAATAAAA [CACACA_site1033]", "gcPBM binding intensity (ln)": 9.7},
      {"sequence": "AAAAAAAAAAATAAAGAAATCAAAATTGATGAATAA [GTGCAC_negctrl_site692]", "gcPBM binding intensity (ln)": 9.18},
      {"sequence": "TATAAATATACACCCACACACATATATATATATATA [CACACA_site3745]", "gcPBM binding intensity (ln)": 9.66},
      {"sequence": "TATATAAAAAATAAATGTACACATGTAATAATAAAA [XGTACX_site2640]", "gcPBM binding intensity (ln)": 9.58},
      {"sequence": "TGTGTAAACATATTCACACACATAAATTCGCATATA [CACACA_site6961]", "gcPBM binding intensity (ln)": 9.54},
      {"sequence": "ATATGAACAAAATAAATCTCTTCAAAAATAATGTTC [GTGCAC_negctrl_site2]", "gcPBM binding intensity (ln)": 9.17},
      {"sequence": "TAAATGATTGCATAATGTACATATAATTTTTTTTTT [XGTACX_site1988]", "gcPBM binding intensity (ln)": 9.03},
      {"sequence": "TATATATATTTATGCTGTACCAAATAAGAATAGAAA [XGTACX_site7731]", "gcPBM binding intensity (ln)": 9.14},
      {"sequence": "ACAAAATATACAAAATGTACAAAATTTACAAAATAT [XGTACX_site6466]", "gcPBM binding intensity (ln)": 9.43},
      {"sequence": "AGCACAAGCACAAGCACACATTTATATATAAATACA [CACACA_site4642]", "gcPBM binding intensity (ln)": 9.42},
      {"sequence": "AAAGTTATAATACGTACACACCTTATCTTTTTGGCT [CACACA_site6267]", "gcPBM binding intensity (ln)": 9.47},
      {"sequence": "TTTATGGGTATGTTTACACACATAAAAAAATATATG [CACACA_site5646]", "gcPBM binding intensity (ln)": 9.34},
      {"sequence": "ATATATATGAAAATATGTACATATATATATATATAA [XGTACX_site7550]", "gcPBM binding intensity (ln)": 9.19},
      {"sequence": "ATATAAGTATTTTGAATGCACTTTCTTTTTTTTTTT", "gcPBM binding intensity (ln)": 9.28},
      {"sequence": "ACTGAAAAAAGAAATACACACATTCTGGATCATATA [CACACA_site3860]", "gcPBM binding intensity (ln)": 9.57},
      {"sequence": "TTATAAAATAATTAATGTACGTTTATGTGTATCGAA [XGTACX_site6117]", "gcPBM binding intensity (ln)": 9.24},
      {"sequence": "TATTATCTCTTATGAACACACATTTTTATTTTCAAA [CACACA_site3353]", "gcPBM binding intensity (ln)": 9.31},
      {"sequence": "ATATCGTATATGAGTGGTACTAATATGTAAAAAAAA [XGTACX_site7830]", "gcPBM binding intensity (ln)": 9.13},
      {"sequence": "ATTTTGTTCGAAAGGTGTACATATACAAAAATTATG [XGTACX_site957]", "gcPBM binding intensity (ln)": 9.25},
      {"sequence": "TAATAATAAAAATAAACACACATATAGATGTATATA [CACACA_site7360]", "gcPBM binding intensity (ln)": 9.46},
      {"sequence": "TCATTATTATTCCTCACACATATATATATATATATT [CACACA_site4375]", "gcPBM binding intensity (ln)": 9.49},
      {"sequence": "AGCACACCCACAAAAACACACACAAAGGTGTTCTTA [CACACA_site8355]", "gcPBM binding intensity (ln)": 9.6},
      {"sequence": "CACTTTTCATATATGACACACAAAAAATTAATAAAA [CACACA_site3639]", "gcPBM binding intensity (ln)": 9.17},
      {"sequence": "GCATGTATAATGGTAGTGCATATAATAATATAATAA [GTGCAC_site9548]", "gcPBM binding intensity (ln)": 9.2},
      {"sequence": "ATTAACACTGAAAAATGTACATATATAAATATAAGC [XGTACX_site8222]", "gcPBM binding intensity (ln)": 9.52},
      {"sequence": "AATATTAAAAACAAAACACACAAAAAAAAATAAACT [CACACA_site6470]", "gcPBM binding intensity (ln)": 10.1},
      {"sequence": "AACGATATCTGTACTACACACATTATGTCATCCTAT [CACACA_site5374]", "gcPBM binding intensity (ln)": 9.81},
      {"sequence": "TAAAATAATACAAAATGTACAAAATTTACAAAATGT [XGTACX_site3541]", "gcPBM binding intensity (ln)": 9.28},
      {"sequence": "ATGTAAATTAAACATGGTACACATTATACAAAATTA [XGTACX_site5675]", "gcPBM binding intensity (ln)": 9.41},
      {"sequence": "AATATAGAACAATGTTGTACATATAATAATCTTATA [XGTACX_site4671]", "gcPBM binding intensity (ln)": 9.15},
      {"sequence": "TTCATATATTATTATGCATGTTCATAAATTATCTAA [TGCATGCA_site896]", "gcPBM binding intensity (ln)": 9.11},
      {"sequence": "TTCATATAATTATATACATGCATAAATTCTAAGTAA [TGCATGCA_site622]", "gcPBM binding intensity (ln)": 9.01},
      {"sequence": "ATTTTATAAACAAATGAACACACAAACATATATATA [CACACA_site9036]", "gcPBM binding intensity (ln)": 9.74},
      {"sequence": "TACATACATAAACACACACACACATATATATATATA [CACACA_site8953]", "gcPBM binding intensity (ln)": 10.1},
      {"sequence": "ATTTGTGTATATTAGAGTACATAAAATTAGAGGAAC [XGTACX_site1654]", "gcPBM binding intensity (ln)": 9.54},
      {"sequence": "ATCAAAAGAAAACACACACACATACATATATATATA [CACACA_site3795]", "gcPBM binding intensity (ln)": 10.1},
      {"sequence": "ACCCATTCAAATTTCGCACACACATACAAAAAAAAA [CACACA_site3094]", "gcPBM binding intensity (ln)": 9.76},
      {"sequence": "CATTAATGACATGATTGTACATAAGCTTTTTTACAT [XGTACX_site1888]", "gcPBM binding intensity (ln)": 9.28},
      {"sequence": "AAAAGGAAAATACTAGCACACAATATATAATAAACA [CACACA_site285]", "gcPBM binding intensity (ln)": 9.62}
    ]}
  ]
}
